Laboratory results as given in PubChem BioAssay AID624418 (National Center for Advancing Translational Sciences (NCATS), 2012).
In all, about 410,000 compounds went through this assay and about 530 (0.13%) were called active. The inconclusive results got no clear call from the source; some entries with a clear call stand among them for comparison. Calls come from the whole dose curve; as a rule, active = well fitted inhibition curve with a large enough effect; inconclusive = small, poorly fitted or top-dose-only effect, or another doubt; inactive = no such curve, though single readings can be large or run the other way. Potencies beside an inconclusive call are fits to weak or partial responses and may not hold up.

Experiment: qHTS of GLP-1 Receptor Inverse Agonists: Cytotox Screen
Conditions: HEK293 cAMP-luciferase reporter cells, luminescence, 24 h; activity change, negative = inhibition: at 38.3 µM (top of the series) unless noted
Summary of the method: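 1536-well qHTS counterscreen of the MLSMR; 200 cells/uL, 12 h pre-incubation, 23 nL cpd, 24 h at 37 deg C 5% CO2, luciferase detection reagent, 12 min RT, luminescence. Inhibition = undesired.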
% is set by controls: 0 for no effect and ±100 for the full control effect; potency is the fitted concentration of half-maximal effect.

Compound	Potency	activity change, negative = inhibition
COc1ccc2nc(NC(=O)CCn3cccc3)sc2c1	inconclusive: 28.2 µM [inhibitor, single point]	
CCN(CC)CCNC(=O)C12CC3CC(C)(CC(C)(C3)C1)C2	inconclusive: 15.8 µM [inhibitor, single point]	
O=c1oc(CCCO)cc2ccc(C#CC3(O)CCCCC3)cc12	inconclusive: 0.501 µM [inhibitor, full curve, poor fit]	
C/C(=N\Nc1ccc(S(N)(=O)=O)cc1[N+](=O)[O-])c1ccco1	inconclusive: 28.2 µM [inhibitor, single point]	
Cc1ccc(NNC(=O)C(=O)N2CCCCC2)cc1	inconclusive: 3.55 µM [inhibitor, partial curve]	
COc1cccc(N2CC(NC(=O)C(c3ccccc3)c3ccccc3)CC2=O)c1 (configuration not stated)		inactive: 9.41%
Cc1ccc(S(=O)(=O)N2CC3(O)CN(C(=O)OC(C)C)N(C(=O)OC(C)C)CC3(OC(=O)NCc3ccccc3F)C2)cc1 (configuration not stated)	inconclusive: 28.2 µM [inhibitor, single point]	
Oc1ccc(COCc2ccccc2)c2cccnc12		inactive: 7.34%
COc1ccccc1NC(=O)c1oc2ccccc2c1NC(=O)c1cc(OC)c(OC)c(OC)c1	inconclusive: 11.2 µM [inhibitor, partial curve, poor fit]	
CCn1c(NC(=O)c2cccc(Cn3cc(Cl)cn3)c2)nc2ccccc21		inactive: -10.2%
Cc1ccc(N2CC(NC(=O)/C=C\c3ccc4c(c3)OCO4)CC2=O)cc1C (configuration not stated)		inactive: -11%
Cc1ccc(NC(=O)Nc2ccc3c(c2)OCO3)nc1		inactive: 5.92%
NC(=O)c1cccnc1Nc1cccc([N+](=O)[O-])c1		inactive: 21.7% [at 7.66 µM]
COc1ccccc1/C=N/Nc1nc(C)c(C(C)=O)s1	inconclusive: 1 µM [inhibitor, full curve, poor fit]	
N=C1SCC(=O)N1c1ncc(Cc2ccc(F)cc2)s1	inconclusive: 10 µM [inhibitor, partial curve, poor fit]	
Cc1cccc(NC(=O)/C=C/c2ccc([N+](=O)[O-])s2)c1	inconclusive: 10 µM [inhibitor, single point]	
C[C@H]1CN([C@@H](C)CO)S(=O)(=O)c2ccc(C#Cc3cccnc3)cc2O[C@@H]1CN(C)C(=O)Nc1ccc2c(c1)OCO2		inactive: 0.324%
Cc1c(C(=O)NCc2cccc(C(F)(F)F)c2)sc(=O)n1Cc1ccc(C(=O)N(C)C)cc1		inactive: 3.33%
CCN(CC)c1ccc(N=Nc2ncn[nH]2)cc1	inconclusive: 11.2 µM [inhibitor, partial curve, poor fit]	
O=C(Nc1sc2c(c1-c1nc3ccccc3[nH]1)CCCC2)C1CCCC1	inconclusive: 28.2 µM [inhibitor, single point]	
COc1ccc(-c2cc(C(=O)N(C)Cc3ccccc3F)c3ccccc3n2)cc1OC	inconclusive: 10 µM [inhibitor, partial curve, poor fit]	
CCOC(=O)N1CCC(=NNc2ncc(C(F)(F)F)cc2Cl)CC1	inconclusive: 28.2 µM [inhibitor, partial curve, poor fit]	
